Experimental data: the supplement of paper PMC8728848
This is one part of the list.

Experiments:
Experiment in all cases: glycan array binding signal (z-score within array); higher = stronger binding
Settings in all cases: glycan notation: IUPAC condensed, linker removed
[1] = molecular target: Gal(a1-3)Gal
Outline: (§1)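 The binding signal is a Z-score computed within each array and averaged over linkers. Arrays of the same protein sequence at different concentrations or buffers were also averaged together. Data originate from 3228 arrays in the Consortium for Functional Glycomics database, kept only where the protein sequence was available.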

[2] = molecular target: Gal(a1-3)Gal(b1-3)GlcNAc
Outline: as §1

[3] = molecular target: Gal(a1-3)Gal(b1-3)GlcNAc(b1-2)Man
Outline: as §1

[4] = molecular target: Gal(a1-3)Gal(b1-3)GlcNAc(b1-2)Man(a1-3)[Gal(a1-3)Gal(b1-3)GlcNAc(b1-2)Man(a1-6)]Man(b1-4)GlcNAc(b1-4)GlcNAc
Outline: as §1

[5] = molecular target: Gal(a1-3)Gal(b1-3)GlcNAc(b1-3)GalNAc
Outline: as §1

[6] = molecular target: Gal(a1-3)Gal(b1-3)GlcNAc(b1-6)GalNAc
Outline: as §1

[7] = molecular target: Gal(a1-3)Gal(b1-3)[Fuc(a1-4)]GlcNAc(b1-2)Man(a1-3)[Gal(a1-3)Gal(b1-3)[Fuc(a1-4)]GlcNAc(b1-2)Man(a1-6)]Man(b1-4)GlcNAc(b1-4)GlcNAc
Outline: as §1

[8] = molecular target: Gal(a1-3)Gal(b1-4)Glc
Outline: as §1

[9] = molecular target: Gal(a1-3)Gal(b1-4)GlcNAc
Outline: as §1

[10] = molecular target: Gal(a1-3)Gal(b1-4)GlcNAc(b1-2)Man
Outline: as §1

[11] = molecular target: Gal(a1-3)Gal(b1-4)GlcNAc(b1-2)Man(a1-3)[Gal(a1-3)Gal(b1-4)GlcNAc(b1-2)Man(a1-6)]Man(b1-4)GlcNAc(b1-4)GlcNAc
Outline: as §1

[12] = molecular target: Gal(a1-3)Gal(b1-4)GlcNAc(b1-3)GalNAc
Outline: as §1

[13] = molecular target: Gal(a1-3)Gal(b1-4)GlcNAc(b1-6)GalNAc
Outline: as §1

[14] = molecular target: Gal(a1-3)Gal(b1-4)[Fuc(a1-3)]GlcNAc
Outline: as §1

[15] = molecular target: Gal(a1-3)Gal(b1-4)[Fuc(a1-3)]GlcNAc(b1-2)Man(a1-3)[Gal(a1-3)Gal(b1-4)[Fuc(a1-3)]GlcNAc(b1-2)Man(a1-6)]Man(b1-4)GlcNAc(b1-4)GlcNAc
Outline: as §1

[16] = molecular target: Gal(a1-3)GalNAc
Outline: as §1

[17] = molecular target: Gal(a1-3)[Gal(a1-4)]Gal(b1-4)GlcNAc
Outline: as §1

[18] = molecular target: Gal(a1-4)Gal(b1-3)GlcNAc(b1-2)Man(a1-3)[Gal(a1-4)Gal(b1-3)GlcNAc(b1-2)Man(a1-6)]Man(b1-4)GlcNAc(b1-4)GlcNAc
Outline: as §1

[19] = molecular target: Gal(a1-4)Gal(b1-4)Glc
Outline: as §1

[20] = molecular target: Gal(a1-4)Gal(b1-4)GlcNAc
Outline: as §1

[21] = molecular target: Gal(a1-4)Gal(b1-4)GlcNAc(b1-2)Man(a1-3)[Gal(a1-4)Gal(b1-4)GlcNAc(b1-2)Man(a1-6)]Man(b1-4)GlcNAc(b1-4)GlcNAc
Outline: as §1

[22] = molecular target: Gal(a1-4)Gal(b1-4)GlcNAc(b1-3)Gal(b1-4)Glc
Outline: as §1

[23] = molecular target: Gal(a1-4)GlcNAc
Outline: as §1

[24] = molecular target: Gal(a1-6)Glc
Outline: as §1

[25] = molecular target: Gal(b1-2)Gal
Outline: as §1

[26] = molecular target: Gal(b1-3)Gal
Outline: as §1

[27] = molecular target: Gal(b1-3)Gal(b1-4)GlcNAc
Outline: as §1

[28] = molecular target: Gal(b1-3)GalNAc
Outline: as §1

[29] = molecular target: Gal(b1-3)GalNAc(a1-3)[Fuc(a1-2)]Gal(b1-4)Glc
Outline: as §1

[30] = molecular target: Gal(b1-3)GalNAc(a1-3)[Fuc(a1-2)]Gal(b1-4)GlcNAc
Outline: as §1

[31] = molecular target: Gal(b1-3)GalNAc(b1-3)Gal
Outline: as §1

[32] = molecular target: Gal(b1-3)GalNAc(b1-3)Gal(a1-4)Gal(b1-4)Glc
Outline: as §1

[33] = molecular target: Gal(b1-3)GalNAc(b1-4)Gal(b1-4)Glc
Outline: as §1

[34] = molecular target: Gal(b1-3)GalNAc(b1-4)[Neu5Ac(a2-3)]Gal(b1-4)Glc
Outline: as §1

[35] = molecular target: Gal(b1-3)GlcNAc
Outline: as §1

[36] = molecular target: Gal(b1-3)GlcNAc(a1-3)Gal(b1-4)GlcNAc
Outline: as §1

[37] = molecular target: Gal(b1-3)GlcNAc(a1-6)Gal(b1-4)GlcNAc
Outline: as §1

[38] = molecular target: Gal(b1-3)GlcNAc(b1-2)Man
Outline: as §1

B1: DC-ASGPR Long (Homo sapiens) (protein)
chain: MTRTYENFQYLENKVKVQGFKNGPLPLQSLLQRLRSGPCHLLLSLGLGLLLLVIICVVGFQNSKFQRDLVTLRTDFSNFTSNTVAEIQALTSQGSSLEETIASLKAEVEGFKQERQAGVSELQEHTTQKAHLGHCPHCPSVCVPVHSEMLLRVQQLVQDLKKLTCQVATLNNNASTEGTCCPVNWVEHQDSCYWFSHSGMSWAEAEKYCQLKNAHLVVINSREEQNFVQKYLGSAYTWMGLSDPEGAWKWVDGTDYATGFQNWKPGQPDDWQGHGLGGGEDCAHFHPDGGWNDDVCQRPYHWVCEAGLGQTSQESH
- glycan array binding signal (z-score) [1]: 0.361
- glycan array binding signal (z-score) [2]: -0.064
- glycan array binding signal (z-score) [3]: -0.229
- glycan array binding signal (z-score) [4]: -0.541
- glycan array binding signal (z-score) [5]: -0.252
- glycan array binding signal (z-score) [6]: 3.07
- glycan array binding signal (z-score) [7]: -0.278
- glycan array binding signal (z-score) [8]: -0.226
- glycan array binding signal (z-score) [9]: -0.382
- glycan array binding signal (z-score) [10]: -0.092
- glycan array binding signal (z-score) [11]: -0.396
- glycan array binding signal (z-score) [12]: -0.114
- glycan array binding signal (z-score) [13]: 3.58
- glycan array binding signal (z-score) [14]: -0.414
- glycan array binding signal (z-score) [15]: 0.459
- glycan array binding signal (z-score) [16]: -0.006
- glycan array binding signal (z-score) [17]: -0.216
- glycan array binding signal (z-score) [18]: -0.383
- glycan array binding signal (z-score) [19]: -0.365
- glycan array binding signal (z-score) [20]: -0.101
- glycan array binding signal (z-score) [21]: -0.324
- glycan array binding signal (z-score) [22]: -0.788
- glycan array binding signal (z-score) [23]: -0.054
- glycan array binding signal (z-score) [24]: 1.29
- glycan array binding signal (z-score) [25]: -0.067
- glycan array binding signal (z-score) [26]: 0.299
- glycan array binding signal (z-score) [27]: -0.207
- glycan array binding signal (z-score) [28]: -0.129
- glycan array binding signal (z-score) [29]: -0.124
- glycan array binding signal (z-score) [30]: -0.289
- glycan array binding signal (z-score) [31]: -0.38
- glycan array binding signal (z-score) [32]: 0.892
- glycan array binding signal (z-score) [33]: -0.606
- glycan array binding signal (z-score) [34]: 0.778
- glycan array binding signal (z-score) [35]: -0.053
- glycan array binding signal (z-score) [36]: 0.038
- glycan array binding signal (z-score) [37]: 0.505
- glycan array binding signal (z-score) [38]: -0.186
